In experiment [1] the target is T1, human ROR1 protein (human, UniProt Q01973 in part).
T1 construct: The immunogen was a human ROR-1 fusion protein (ACRO, RO1-H5250)
Nature of the experiment: affinity detection, method not stated.

Experiment [2] addresses T2, human BCMA protein (human, UniProt Q02223 1-54).
T2 construct: also called B cell maturation antigen
T2 sequence (looked up): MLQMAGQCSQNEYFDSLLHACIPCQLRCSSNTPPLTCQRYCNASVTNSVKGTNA
Nature of the experiment: affinity detection, method not stated.

T1 sequence (Q01973 30-403 limits assumed): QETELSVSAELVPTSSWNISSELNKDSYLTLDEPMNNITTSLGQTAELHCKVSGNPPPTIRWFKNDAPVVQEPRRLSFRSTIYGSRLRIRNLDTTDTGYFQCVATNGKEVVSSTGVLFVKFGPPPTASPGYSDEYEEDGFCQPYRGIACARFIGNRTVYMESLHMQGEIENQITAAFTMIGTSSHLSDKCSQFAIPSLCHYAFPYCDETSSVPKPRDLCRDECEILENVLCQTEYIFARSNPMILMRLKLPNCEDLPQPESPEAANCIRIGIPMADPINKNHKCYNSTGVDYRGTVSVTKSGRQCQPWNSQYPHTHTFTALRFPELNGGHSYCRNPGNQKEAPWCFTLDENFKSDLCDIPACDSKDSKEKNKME

B1: ROR1-1-hFc (Fc fusion)
chain: DLQLQESGPGLVKPSQSLSLTCSVTGYSITSGYDWNWIRQFPGNKLEWMGYINYDGSNNYNPSLKNRISITRDTSKNQFFLRLSSVTTEDTATYFCARGILRGYFDYWGQGTTLTVSSGGGGSGGGGSGGGGSEIVLTQSPGSLAVSLGQRATISCRASESVDNFGLSFMHWYQQKPGQPPKLLIYRASNLESGIPARFSGSGSRTDFTLTINPVETDDVATYYCQQSNKDPYTFGGGTKLEIK[gap - human IgG1 Fc with C220S (EU numbers)]
notes: ROR1-1-scFv (VH-linker-VL) cloned into a vector with signal peptide and human Fc; also called ROR1-1-scFv-hFc; chimeric antibody ROR1-1-hFc
For B1, in experiment [1], the Kd was 323 nM.

B2: VHH1-hFc (Fc fusion)
chain: QVQLVESGGGLVQPGGSLRLSCSGSGFTLDYYMIGWFRQAPGKEREGLSSISPADGSTYYADSVKGRFTISRDSAKNTVYLQMNNLKPEDTALYYCAAGNEATISWGFGPWEYDYWGQGTQVTVSS[gap - human IgG1 Fc with C220S (EU numbers)]
notes: VHH1 recombined into an expression vector for human IgG1 Fc; also called chimeric antibody VHH1-hFc
On to B2, for which binding in experiment [2] was characterised by a dissociation constant (Kd) of 0.527 nM.

B3: hu-VHH1-hFc (Fc fusion)
chain: EVQLVESGGGLVQPGGSLRLSCSASGFTLDYYMIGWFRQAPGKEREGLSSISPADGSTYYADSVKGRFTISRDSSKNTVYLQMNSLRAEDTAVYYCAAGNEATISWGFGPWEYDYWGQGTMVTVSS[gap - human IgG1 Fc with C220S (EU numbers)]
notes: Humanized VHH1 fused to human IgG1 Fc; also called humanized antibody hu-VHH1-hFc
In experiment [2], B3 returned a Kd of 0.613 nM.

B4: hu-VHH2-hFc (Fc fusion)
chain: EVQLVESGGGLVQPGGSLRLSCAASESISSIHIMAWYRQAPGKQRELVAGIRNDGSTVYVDSVKGRFTISRDNAKNSVYLQMNSLRAEDTAVYYCNADQGFGSYSEWERRSRWGQGTTVTVSS[gap - human IgG1 Fc with C220S (EU numbers)]
notes: Humanized VHH2 fused to human IgG1 Fc; also called humanized antibody hu-VHH2-hFc
For the molecule B4, the Kd in experiment [2] came out at 0.0882 nM.

The Kd is the equilibrium constant for the complex coming apart. A low value points to tighter binding.
